T1: soluble recombinant of human LIGHT (His10, GS linker, Asp74-Val240)
T1 chain: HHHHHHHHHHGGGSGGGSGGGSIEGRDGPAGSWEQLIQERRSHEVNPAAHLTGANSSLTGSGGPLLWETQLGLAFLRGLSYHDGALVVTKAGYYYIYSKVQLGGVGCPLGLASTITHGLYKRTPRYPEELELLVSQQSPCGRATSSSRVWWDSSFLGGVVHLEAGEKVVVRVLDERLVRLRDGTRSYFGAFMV

T2: soluble recombinant of human FasL (His6, Pro134-Leu281) (UniProt P48023 134-281)
T2 chain: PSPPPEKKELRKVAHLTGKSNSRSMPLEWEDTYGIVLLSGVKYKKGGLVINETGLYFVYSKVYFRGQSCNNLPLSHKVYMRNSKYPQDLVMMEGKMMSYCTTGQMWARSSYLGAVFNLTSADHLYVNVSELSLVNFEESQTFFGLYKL

T3: soluble recombinant of human TL1A (His6, GS linker, Leu72-Leu251) (UniProt O95150 72-251)
T3 chain: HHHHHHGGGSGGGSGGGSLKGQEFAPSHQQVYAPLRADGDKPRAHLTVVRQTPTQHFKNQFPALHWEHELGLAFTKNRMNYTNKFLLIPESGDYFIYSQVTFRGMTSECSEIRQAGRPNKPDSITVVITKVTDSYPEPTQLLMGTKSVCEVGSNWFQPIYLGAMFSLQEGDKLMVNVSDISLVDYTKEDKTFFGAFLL

T4: soluble recombinant of human TL1A (His6, GS linker, Leu72-Leu251) (human, UniProt O95150 72-251)
T4 construct: also called His6-TL1A; hTL1A
T4 sequence: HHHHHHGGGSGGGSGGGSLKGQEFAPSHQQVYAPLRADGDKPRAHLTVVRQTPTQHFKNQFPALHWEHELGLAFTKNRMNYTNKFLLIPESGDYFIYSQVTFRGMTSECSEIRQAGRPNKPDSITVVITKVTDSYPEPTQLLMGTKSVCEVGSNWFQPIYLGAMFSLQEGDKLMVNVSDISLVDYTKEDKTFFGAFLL

T5: Human His6 Fas Ligand/TNFSF6 (Cell Signaling Technology, Inc.) (human, UniProt P48023 133-281)
T5 construct: Bought; confirmed as a trimer by SEC-MALS; also called recombinant human His6 Fas Ligand; soluble human FasL trimer
T5 sequence: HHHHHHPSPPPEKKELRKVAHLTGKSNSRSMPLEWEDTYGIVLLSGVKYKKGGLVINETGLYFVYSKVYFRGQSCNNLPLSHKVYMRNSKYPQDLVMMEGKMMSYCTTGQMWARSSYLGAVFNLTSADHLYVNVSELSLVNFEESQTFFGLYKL

T6: soluble recombinant of cynomolgus monkey FasL (His6, Pro133-Leu280) (cynomolgus monkey, UniProt P63308 133-280)
T6 construct: also called His6-cynoFasL
T6 sequence: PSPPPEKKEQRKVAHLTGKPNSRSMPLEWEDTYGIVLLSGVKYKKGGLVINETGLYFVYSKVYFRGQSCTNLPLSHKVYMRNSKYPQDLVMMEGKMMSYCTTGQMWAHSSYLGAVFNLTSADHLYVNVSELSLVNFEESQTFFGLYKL

T7: FLAG-cynoLIGHT (FLAG tag, cynomolgus monkey LIGHT Asp74-Val240) (cynomolgus monkey)
T7 construct: SEC trimer fraction; also called soluble cynomolgus monkey LIGHT trimer
T7 chain: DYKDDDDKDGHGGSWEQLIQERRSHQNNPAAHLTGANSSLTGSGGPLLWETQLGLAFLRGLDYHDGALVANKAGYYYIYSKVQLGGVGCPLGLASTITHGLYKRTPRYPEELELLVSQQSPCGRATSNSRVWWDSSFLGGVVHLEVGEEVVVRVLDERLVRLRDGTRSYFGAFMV

T8: soluble recombinant of cynomolgus monkey TL1A (His6, GS linker, Leu72-Leu251) (cynomolgus monkey)
T8 construct: also called His6-cynoTL1A
T8 chain: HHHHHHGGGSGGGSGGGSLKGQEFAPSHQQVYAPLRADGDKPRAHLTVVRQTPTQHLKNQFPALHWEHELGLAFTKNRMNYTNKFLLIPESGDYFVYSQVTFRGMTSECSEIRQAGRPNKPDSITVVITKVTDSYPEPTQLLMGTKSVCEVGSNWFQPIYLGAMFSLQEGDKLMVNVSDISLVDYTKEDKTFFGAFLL

T9: soluble recombinant of cynomolgus monkey TL1A (His6, GS linker, Leu72-Leu251)
T9 chain: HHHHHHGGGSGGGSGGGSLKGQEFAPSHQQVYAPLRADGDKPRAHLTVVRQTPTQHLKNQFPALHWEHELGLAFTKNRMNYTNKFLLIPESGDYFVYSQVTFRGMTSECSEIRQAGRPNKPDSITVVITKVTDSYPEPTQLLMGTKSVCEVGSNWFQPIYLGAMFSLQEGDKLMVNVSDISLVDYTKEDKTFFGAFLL

T10: soluble recombinant of cynomolgus monkey FasL (His6, Pro133-Leu280) (UniProt P63308 133-280)
T10 chain: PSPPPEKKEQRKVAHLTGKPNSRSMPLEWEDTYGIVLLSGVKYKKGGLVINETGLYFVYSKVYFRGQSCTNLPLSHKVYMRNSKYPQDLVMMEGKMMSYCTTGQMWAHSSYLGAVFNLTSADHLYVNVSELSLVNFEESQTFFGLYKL

T11: soluble recombinant of cynomolgus monkey LIGHT (His10, GS linker, Asp74-Val240)
T11 chain: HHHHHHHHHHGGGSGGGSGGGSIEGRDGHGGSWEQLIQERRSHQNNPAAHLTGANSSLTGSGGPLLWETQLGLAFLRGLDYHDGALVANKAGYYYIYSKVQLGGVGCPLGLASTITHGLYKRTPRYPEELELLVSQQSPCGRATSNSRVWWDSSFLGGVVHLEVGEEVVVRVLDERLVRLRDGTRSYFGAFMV


Legend:
[1] = target: T1, soluble recombinant of human LIGHT …; assay: SPR
[2] = target: T2, soluble recombinant of human FasL …; assay: SPR
[3] = target: T3, soluble recombinant of human TL1A …; assay: SPR
[4] = target: T1, soluble recombinant of human LIGHT …; assay: BIAcore SPR
Summary of the method: (§1)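 On a BIAcore T-100 or T-200 instrument (GE Healthcare), with HBS-EP+ Buffer, surface plasmon resonance measured binding of each test molecule to soluble recombinant His-tagged LIGHT, TL1A or FasL. These proteins were of human or cynomolgus monkey origin. The dissociation constant (Kd, nM) was derived from the resulting data.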

[5] = target: T2, soluble recombinant of human FasL …; assay: BIAcore SPR
Summary of the method: as §1

[6] = target: T3, soluble recombinant of human TL1A …; assay: BIAcore SPR
Summary of the method: as §1

[7] = target: T4, soluble recombinant of human TL1A …; assay: SPR, binder captured on Protein A chip
Description: (§2) The binding activity to human and cynomolgus monkey DcR3 ligand trimers were analyzed by the SPR method. BIAcore T-100 (GE Healthcare) was used for measurement of the binding activities to human LIGHT, cynomolgus monkey LIGHT, human TL1A and cynomolgus monkey TL1A, and BIAcore T-200 (GE Healthcare) was used for measurement of the binding activities to human FasL and cynomolgus monkey FasL. As the buffer, HBS-EP+Buffer was used.
(§3) Various DcR3 variants were injected into Series S Sensor Chip Protein A (GE Healthcare) at 10 μL/min for 30 seconds and captured. Meanwhile, the buffer containing no protein was injected into a reference flow cell. Thereafter, as an analyte, each human DcR3 ligand trimer or each cynomolgus monkey DcR3 ligand trimer diluted to 0.08 to 20 nmol/L was injected. A human LIGHT trimer, a human TL1A trimer or each cynomolgus monkey DcR3 ligand trimer was injected at the flow rate of 30 μL/min for 2 minutes to monitor the binding, and subsequently the buffer was injected for 5 minutes to monitor dissociation. A human FasL trimer was injected at 30 μL/min for 1 minute to monitor the binding, and subsequently the buffer was injected for 3 minutes to monitor dissociation. Then, 3 mol/L magnesium chloride was injected at 30 μL/min for 1 minute to perform a regeneration reaction.

[8] = target: T12, FLAG-LIGHT (FLAG tag, human LIGHT Asp74-Val240) (human, UniProt O43557 74-240); assay: SPR, binder captured on Protein A chip
T12 construct: SEC trimer fraction; also called soluble recombinant FLAG-LIGHT trimer; soluble human LIGHT trimer
Description: as §2, §3

[9] = target: T5, Human His6 Fas Ligand/TNFSF6 (Cell …); assay: SPR, binder captured on Protein A chip
Description: as §2, §3

[10] = target: T6, soluble recombinant of cynomolgus …; assay: SPR, binder captured on Protein A chip
Description: as §2, §3

[11] = target: T7, FLAG-cynoLIGHT (FLAG tag, cynomolgus …); assay: SPR, binder captured on Protein A chip
Description: as §2, §3

[12] = target: T8, soluble recombinant of cynomolgus …; assay: SPR, binder captured on Protein A chip
Description: as §2, §3

[13] = target: T9, soluble recombinant of cynomolgus …; assay: BIAcore SPR
Summary of the method: as §1

[14] = target: T10, soluble recombinant of cynomolgus …; assay: BIAcore SPR
Summary of the method: as §1

[15] = target: T11, soluble recombinant of cynomolgus …; assay: BIAcore SPR
Summary of the method: as §1

Row | koff [1] [s⁻¹] | koff [2] [s⁻¹] | koff [3] [s⁻¹] | Kd [4] [nM] | Kd [5] [nM] | Kd [6] [nM] | binding result [7] | binding result [8] | binding result [9] | binding result [10] | binding result [11] | binding result [12] | Kd [13] [nM] | Kd [14] [nM] | Kd [15] [nM] | Binder
1 | 0.000199 | 0.00701 | 0.000338 |  |  |  |  |  |  |  |  |  |  |  |  | chimera A-E57A-Fc (g4PEK) (Fc fusion) ETFPPKYLHYDEETSHQLLCDKCPPGTYLKQHCTAKWKTVCAPCPPRHYTQFWNYLARCRYCNVLCGEREEEARACHATHNRACRCRTGFFAHAGFCLEHASCPPGAGVIAPGTPSQNTQCQPCPDGFFSNETSSKAPCRKHTNCSVFGLLLTQKGNATHDNICSGNSESTQK[omitted - human IgG4 Fc with S228P L235E R409K (EU numbers)]
2 | 0.000195 | 0.00104 | 0.000221 |  |  |  |  |  |  |  |  |  |  |  |  | chimera A-Fc (g4PEK) E57D (Fc fusion) ETFPPKYLHYDEETSHQLLCDKCPPGTYLKQHCTAKWKTVCAPCPPRHYTQFWNYLDRCRYCNVLCGEREEEARACHATHNRACRCRTGFFAHAGFCLEHASCPPGAGVIAPGTPSQNTQCQPCPDGFFSNETSSKAPCRKHTNCSVFGLLLTQKGNATHDNICSGNSESTQK[omitted - human IgG4 Fc with S228P L235E R409K (EU numbers)]
3 |  |  |  | 0.35 | 4.1 | 0.3 | binds | binds | binds | binds | binds | binds | 0.33 | 1 | 0.31 | chimera A-E57R-Fc (Eg1S N434A) (Fc fusion) ETFPPKYLHYDEETSHQLLCDKCPPGTYLKQHCTAKWKTVCAPCPPRHYTQFWNYLRRCRYCNVLCGEREEEARACHATHNRACRCRTGFFAHAGFCLEHASCPPGAGVIAPGTPSQNTQCQPCPDGFFSNETSSKAPCRKHTNCSVFGLLLTQKGNATHDNICSGNSESTQK[omitted - human IgG1 Fc with changes]
4 |  |  |  | 0.37 | 3.8 | 0.24 | binds | binds | binds | binds | binds | binds | 0.27 | 1 | 0.39 | chimera A-E57K-Fc (Eg1S N434A) (Fc fusion) ETFPPKYLHYDEETSHQLLCDKCPPGTYLKQHCTAKWKTVCAPCPPRHYTQFWNYLKRCRYCNVLCGEREEEARACHATHNRACRCRTGFFAHAGFCLEHASCPPGAGVIAPGTPSQNTQCQPCPDGFFSNETSSKAPCRKHTNCSVFGLLLTQKGNATHDNICSGNSESTQK[omitted - human IgG1 Fc with changes]
5 |  |  |  | 0.26 | 3.9 | 0.18 | binds | binds | binds | binds | binds | binds | 0.16 | 1.1 | 0.25 | chimera A-E57K_R58E-Fc (Eg1S N434A) (Fc fusion, also called 45-18-Fc (Eg1S N434A)) ETFPPKYLHYDEETSHQLLCDKCPPGTYLKQHCTAKWKTVCAPCPPRHYTQFWNYLKECRYCNVLCGEREEEARACHATHNRACRCRTGFFAHAGFCLEHASCPPGAGVIAPGTPSQNTQCQPCPDGFFSNETSSKAPCRKHTNCSVFGLLLTQKGNATHDNICSGNSESTQK[omitted - human IgG1 Fc with changes]
6 |  |  |  | 0.31 | 4.1 | 0.21 | binds | binds | binds | binds | binds | binds | 0.19 | 1 | 0.32 | chimera A-E57K_R58D-Fc (Eg1S N434A) (Fc fusion, also called 45-10-Fc (Eg1S N434A)) ETFPPKYLHYDEETSHQLLCDKCPPGTYLKQHCTAKWKTVCAPCPPRHYTQFWNYLKDCRYCNVLCGEREEEARACHATHNRACRCRTGFFAHAGFCLEHASCPPGAGVIAPGTPSQNTQCQPCPDGFFSNETSSKAPCRKHTNCSVFGLLLTQKGNATHDNICSGNSESTQK[omitted - human IgG1 Fc with changes]

— US20220340642A1 (Kyowa Kirin, published 2022)
